Drawing on publication PMC6212790, this text covers binding signal for 109 sequences.

This is one part of the list. At the low end of the ranking, values are background and their order means little.

This assay has as its target T1, GST-Rok (full length) (UniProt O34857).
T1 sequence: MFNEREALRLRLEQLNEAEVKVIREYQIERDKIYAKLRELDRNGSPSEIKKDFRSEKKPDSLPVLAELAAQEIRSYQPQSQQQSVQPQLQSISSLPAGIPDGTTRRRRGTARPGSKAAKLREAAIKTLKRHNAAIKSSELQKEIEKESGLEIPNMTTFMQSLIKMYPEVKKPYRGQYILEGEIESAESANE
Put plainly: protein binding microarray.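 Note: rank score from −0.5 (least bound) to 0.5 (best bound).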 To be noted: Rok is a gene silencer of Bacillus subtilis; high values mean tight binding; most listed sequences are background and not binding sites; double strand, one strand shown.
Sequence ACTGCTAT displayed a binding signal of 0.19 E-score.

ACTGCCGC showed a binding signal of -0.152 E-score.

In turn, CGACTGCG had a binding signal of -0.277 E-score.

Consider ATCGAGCG, for which the binding signal came to 0.0731 E-score.

Regarding GGTACACC, the binding signal is -0.0688 E-score.

For the sequence AATGGTGG, the binding signal was -0.159 E-score.

Regarding CGAGGGTC, the binding signal was -0.153 E-score.

ACGTGACA had a binding signal of -0.124 E-score.

The sequence GACTGGCC yielded a binding signal of -0.0568 E-score.

For CGCCAACC, the binding signal is -0.149 E-score.

Sequence CACAGGTA registered a binding signal of 0.0263 E-score.

The sequence ACCTAGCT returned a binding signal of 0.101 E-score.

Consider ATCAGCTG, for which the binding signal amounted to 0.0593 E-score.

On to CAGTTCGA, for which the binding signal worked out at 0.0767 E-score.

For the sequence AACAGTGA, the binding signal was 0.12 E-score.

Regarding ACAAGGTA, the binding signal came out at 0.166 E-score.

The sequence TATGTGAA showed a binding signal of 0.19 E-score.

In turn, AATGGCAC registered a binding signal of -0.0215 E-score.

With CCTGAAAG, the binding signal is -0.179 E-score.

With CGGACAAG, the binding signal is -0.161 E-score.

Sequence AATCCAAG yielded a binding signal of 0.135 E-score.

In turn, AGGGAGGC displayed a binding signal of -0.403 E-score.

CCTTTGAC yielded a binding signal of -0.168 E-score.

GCTCGTCC registered a binding signal of -0.345 E-score.

The sequence GTATTGGA gave a binding signal of 0.0777 E-score.

In turn, GATATATA registered a binding signal of 0.365 E-score.

Turning to GGCTTCTA, the binding signal was found to be 0.197 E-score.

CTGTTTCC showed a binding signal of -0.0425 E-score.

The sequence ACTAATCG displayed a binding signal of 0.0113 E-score.

TGACCCAA: the binding signal is -0.267 E-score.

In turn, CGGCAAGC returned a binding signal of -0.233 E-score.

The sequence ACGCGGTA registered a binding signal of -0.0332 E-score.

For the sequence CCCTGGAC, the binding signal is -0.273 E-score.

CGATAAAG gave a binding signal of 0.0758 E-score.

CCGGTAAA had a binding signal of 0.107 E-score.

Consider AGCGCGTA, for which the binding signal is 0.0593 E-score.

The sequence CCGGGAGA returned a binding signal of -0.252 E-score.

On to GGTCCGCA, for which the binding signal was -0.0402 E-score.

CGGCCTAG showed a binding signal of -0.123 E-score.

Consider CGAGTCAA, for which the binding signal was -0.0796 E-score.

Sequence AATACGCT displayed a binding signal of -0.0694 E-score.

Consider CAAGCAAA, for which the binding signal is -0.0528 E-score.

Regarding CGATCAGC, the binding signal was -0.222 E-score.

With CTATCGTC, the binding signal came out at 0.179 E-score.

Regarding CGAGTATC, the binding signal is 0.00408 E-score.

The sequence GGCCTGAC had a binding signal of -0.257 E-score.

As to TGCTTTAA, the binding signal is -0.000842 E-score.

With ACGCAACG, the binding signal worked out at 0.161 E-score.

Sequence ATTATATA had a binding signal of 0.468 E-score.

As for GACCAATA, the binding signal was -0.0708 E-score.

As for AATCGCCG, the binding signal was determined as 0.00645 E-score.

Regarding CTATACAA, the binding signal is 0.296 E-score.

Consider ACACGCTG, for which the binding signal was found to be 0.0269 E-score.

For AACTGCTC, the binding signal is -0.0931 E-score.

The sequence ACTCCTAC displayed a binding signal of 0.0513 E-score.

For CTTGCCCC, the binding signal was -0.283 E-score.

In turn, GAGGCACC registered a binding signal of -0.179 E-score.

Take ACGGAATA: the binding signal is 0.136 E-score.

CCGCGATC gave a binding signal of -0.211 E-score.

For CCGACACC, the binding signal was -0.215 E-score.

The sequence GAAAGCCA showed a binding signal of -0.283 E-score.

As for ACAATCAG, the binding signal is -0.0411 E-score.

The sequence CGGGTACC registered a binding signal of -0.166 E-score.

CAGGGCTA gave a binding signal of 0.015 E-score.

Take TAAGCCGA: the binding signal is -0.0712 E-score.

For CTAGTCAC, the binding signal is 0.0889 E-score.

ATCAAGTC came in with a binding signal of -0.0978 E-score.

For the sequence ACCTTCCG, the binding signal is -0.0903 E-score.

For the sequence CCACGTAG, the binding signal was -0.0737 E-score.

The sequence CGATGCCG gave a binding signal of -0.0967 E-score.

The sequence CCAATACG registered a binding signal of -0.00833 E-score.

ATCTACGA came in with a binding signal of 0.275 E-score.

The sequence CGTTATTC yielded a binding signal of 0.0632 E-score.

Take AACTCGCC: the binding signal was -0.0433 E-score.

Turning to TATAGTGA, the binding signal came out at 0.224 E-score.

Consider AGATCCTC, for which the binding signal was -0.00805 E-score.

In the case of CTCGACCC, the binding signal was -0.355 E-score.

Sequence CGTTCAGC registered a binding signal of -0.336 E-score.

TCGATGAA returned a binding signal of 0.0147 E-score.

As for CGCCAACG, the binding signal is -0.298 E-score.

Regarding ACGGATGA, the binding signal is -0.0612 E-score.

With ACCGTAAC, the binding signal came to 0.0734 E-score.

In turn, TTGTTAAA showed a binding signal of 0.157 E-score.

As to AACGCTGA, the binding signal was 0.0852 E-score.

Sequence ATGTTCAG showed a binding signal of 0.135 E-score.

As for AATATGGA, the binding signal amounted to 0.165 E-score.

In turn, AATAGTTA came in with a binding signal of 0.372 E-score.

Turning to AAAACAAC, the binding signal was 0.0571 E-score.

AAGGATAA came in with a binding signal of 0.0145 E-score.

CCCGTGAA showed a binding signal of -0.313 E-score.

CAGTTCGG displayed a binding signal of -0.128 E-score.

ATCTAGTA: the binding signal came out at 0.408 E-score.

As to ACTCCACA, the binding signal was -0.0173 E-score.

On to CGTTGCCA, for which the binding signal is -0.0522 E-score.

Turning to ATGCTACC, the binding signal turned out to be 0.138 E-score.

As to GCCGAGTA, the binding signal is -0.172 E-score.

In turn, ACAGAACT had a binding signal of 0.276 E-score.

Turning to ACTCTATG, the binding signal was 0.00068 E-score.

AGAGGATC had a binding signal of -0.156 E-score.

Consider AAGTCCGT, for which the binding signal came to 0.00287 E-score.

In the case of AAGGTTCG, the binding signal was 0.0496 E-score.

In the case of CTTCCCCA, the binding signal is -0.119 E-score.

Take CAAAAGAG: the binding signal was -0.188 E-score.

As to CGAGGCCA, the binding signal was -0.199 E-score.

Sequence GATGTTAA returned a binding signal of 0.0521 E-score.

Sequence GGCGGGGA gave a binding signal of -0.459 E-score.

TAATCCTA returned a binding signal of 0.171 E-score.

Turning to GAAACAAA, the binding signal worked out at 0.0675 E-score.

CGTATTAC gave a binding signal of 0.285 E-score.
